Test results taken from PubChem BioAssay AID1030 (National Center for Advancing Translational Sciences (NCATS), 2008).
Screen size: about 220,000 compounds; about 16,000 (7.3%) were called active. Inconclusive means that the source gave no clear call. Such entries were picked first, then a sample of the others. Calls follow the shape of the dose curve; as a rule, active = well fitted inhibition curve with a large enough effect (not every such curve was filed as active); inconclusive = small, poorly fitted or top-dose-only effect, or another doubt; inactive = no such curve, though single readings can be large or run the other way. Where the call is inconclusive, the potency comes from a doubtful curve fit.

Target: Aldehyde dehydrogenase 1A1 (Homo sapiens) (UniProt P00352)
Assay: qHTS Assay for Inhibitors of Aldehyde Dehydrogenase 1 (ALDH1A1);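 as to activity, negative = inhibition: plate controls were no enzyme wells and a reference inhibitor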
Conditions: Purified ALDH1A1, NADH fluorescence, propionaldehyde substrate; series mostly up to 75.3 µM; activity, negative = inhibition: at the top concentration
Potency is read from the fitted curve at half-maximal effect; tags tell the direction and shape of the fitted curve.

UniProt P00352, sequence (P00352 whole entry, looked up): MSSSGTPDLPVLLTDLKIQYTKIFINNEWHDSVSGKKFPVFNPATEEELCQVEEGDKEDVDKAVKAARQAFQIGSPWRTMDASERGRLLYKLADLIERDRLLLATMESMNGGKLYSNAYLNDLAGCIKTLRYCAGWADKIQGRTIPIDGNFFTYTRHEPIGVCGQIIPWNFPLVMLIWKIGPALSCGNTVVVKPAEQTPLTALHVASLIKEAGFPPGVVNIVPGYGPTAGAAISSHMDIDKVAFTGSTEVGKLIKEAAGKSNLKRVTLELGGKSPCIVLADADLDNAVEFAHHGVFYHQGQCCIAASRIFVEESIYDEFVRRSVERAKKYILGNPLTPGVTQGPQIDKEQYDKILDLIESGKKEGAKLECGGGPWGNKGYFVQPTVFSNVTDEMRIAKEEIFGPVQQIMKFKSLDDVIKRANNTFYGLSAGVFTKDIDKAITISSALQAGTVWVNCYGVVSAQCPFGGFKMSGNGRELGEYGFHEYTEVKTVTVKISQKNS

Potency, active:
CC(=O)Nc1ccc(S(=O)(=O)Nc2nc3ccccc3nc2N2CCc3ccccc3C2)cc1 11.2 µM
COc1ccc(-n2c(C)cc(C(=O)COC(=O)Cn3cnc4ccccc43)c2C)cc1 12.6 µM
Cc1cccc(-n2ncc3c(N4CCC(C)CC4)ncnc32)c1 14.1 µM
CC1=C(C(=O)OC(C)C)C(c2cccs2)NC(=S)N1 (stereo unspecified) 3.16 µM
CC1(C)Cc2c(sc(NC(=O)c3ccccc3)c2C(=O)O)CO1 22.4 µM
CN(CCOc1ccccc1)CC(=O)Nc1ccc(S(=O)(=O)N2CCCC2)cc1 12.6 µM
Cc1cc2n(n1)SC(Nc1ccccc1)N2 (stereo unspecified) 25.1 µM
N#Cc1c(-c2c(Cl)cccc2Cl)noc1/C=C/Nc1ccc(C(=O)O)cc1 3.55 µM
O=C(NCc1cccnc1)c1cc(S(=O)(=O)N2CCCCC2)ccc1Cl 20 µM
O=S(=O)(Nc1nc2ccc(S(=O)(=O)N3CCCCC3)cc2s1)c1ccccc1 0.355 µM
COc1cccc(CN(Cc2cccnc2)S(=O)(=O)c2ccc(-n3cnnn3)c(C)c2)c1 25.1 µM

Potency, inconclusive:
CSc1nc(NCc2ccco2)c2sc3nc(C(C)C)c4c(c3c2n1)CC(C)(C)OC4 17.8 µM [inhibitor, partial curve]
COc1ccc(CNC(=O)Nc2cccs2)cc1OC 39.8 µM [inhibitor, single point]
CCN(CC)CCN1C(=O)C(=O)/C(=C(/O)c2cccc(OC)c2)C1c1ccccn1 (stereo unspecified) 35.5 µM [inhibitor, single point]
Cc1cc(=O)[nH]c(CN2CCC(c3ccccc3)CC2)n1 25.1 µM [inhibitor, single point]
COc1ccc(-c2cc(C(=O)N3CCN(Cc4ccccc4)CC3)no2)cc1OC 39.8 µM [inhibitor, single point]
COc1ccc(S(=O)(=O)NC(CC(=O)NC2CCCC2)c2ccco2)cc1 (stereo unspecified) 39.8 µM [inhibitor, single point]
CCSC1=NCCN1S(=O)(=O)c1ccc2ccccc2c1 28.2 µM [inhibitor, partial curve]
COCC(=O)Nc1sc2c(c1C(=O)OC)CCC(C)C2 (stereo unspecified) 28.2 µM [inhibitor, single point]
COc1ccc(Cl)c(Cn2c(NCc3ccccn3)nc3c2c(=O)n(C)c(=O)n3C)c1 17.8 µM [inhibitor, single point]
CC(=O)NC(=O)c1ccc(-c2ccc(Cl)cc2)o1 25.1 µM [inhibitor, partial curve]
COc1ncc2nc(-c3cccs3)c(=O)n(Cc3ccc(F)cc3)c2n1 11.2 µM [inhibitor, partial curve]
COc1ccc(C2CC(=O)C=C(NC3CCCC3)C2)cc1 (stereo unspecified) 44.7 µM [inhibitor, single point]
CCOC(=O)C1CCCN(S(=O)(=O)c2ccc(OC)c3ccccc23)C1 (stereo unspecified) 20 µM [inhibitor, partial curve]
COc1cccc(C(=O)NC(c2ccccc2)C2CCCC2)c1 (stereo unspecified) 14.1 µM [inhibitor, partial curve]
Cc1ccc(-n2c(-c3cccs3)nc3nc4ccccc4nc32)cc1 31.6 µM [inhibitor, partial curve]
Cc1ccc(-c2nn(-c3cccc(F)c3)cc2CN(Cc2nccn2C)C(C)C)o1 31.6 µM [inhibitor, single point]
Cc1cccc2sc(NNC(=O)c3ccc(S(=O)(=O)N4CCCC(C)C4)cc3)nc12 (stereo unspecified) 39.8 µM [inhibitor, single point]
Cc1ccccc1C(=O)N1CCC(C(=O)Nc2ccc(S(=O)(=O)N3CCCC3)cc2)CC1 22.4 µM [inhibitor, single point]
O=C(NN1C(=O)/C(=C\c2cccnc2)SC1=S)c1ccco1 25.1 µM [inhibitor, single point]
CC(=O)C1=C(C)NC(SCC(=O)Nc2nccs2)=C(C#N)C1c1ccccc1Cl (stereo unspecified) 39.8 µM [inhibitor, single point]
O=C(CNCCc1ccccc1)N1CCc2ccccc2C1 35.5 µM [inhibitor, single point]
N#C/C(=C/c1cccc(C(F)(F)F)c1)c1nc(CCN2C(=O)c3ccccc3C2=O)cs1 39.8 µM [inhibitor, single point]
COc1ccc(N(Cc2cc3ccc(C)cc3[nH]c2=O)C(=O)c2ccco2)cc1 25.1 µM [inhibitor, partial curve]
COc1cnc(-c2ccccc2)nc1Sc1ccccc1 39.8 µM [inhibitor, single point]
CSc1cccc(NC(=S)N(C(C)C)C(C)c2ccccn2)c1 (stereo unspecified) 35.5 µM [inhibitor, single point]
O=C(CC1NCCc2ccccc21)Nc1ccc(Cl)cc1 (stereo unspecified) 39.8 µM [inhibitor, single point]
Cc1ccccc1-c1nnc(-c2ccccc2)o1 20 µM [inhibitor, single point]
CCNc1ncc2nc(-c3ccccc3)c(=O)n(CCC#N)c2n1 22.4 µM [inhibitor, partial curve]
c1ccc(SCCCCNC2CCCC2)cc1 11.2 µM [inhibitor, partial curve]
O=c1c2cn[nH]c2[nH]c(=S)n1-c1cccc(Cl)c1 39.8 µM [inhibitor, single point]
Cn1c(C(=O)NCc2ccccn2)cc2c(=O)n(C)c3ccccc3c21 39.8 µM [inhibitor, single point]
Fc1ccc(NC(=S)Nc2cccnc2)c(F)c1F 39.8 µM [inhibitor, single point]
O=C(CSCc1ccco1)c1cccs1 35.5 µM [inhibitor, single point]
COc1ccc(-c2nc(-c3ccc(Br)o3)no2)cc1OC 39.8 µM [inhibitor, single point]
CC1(C)Cc2nc3sc(C(=O)NCCCO)c(N)c3cc2CS1 37.7 µM [inhibitor, single point]
CCN(CC)CCNC(=O)c1cc2c(=O)n(C)c3ccccc3c2n1C 35.5 µM [inhibitor, single point]
COc1ccccc1Cn1c(=S)[nH]c2cc(C(=O)NCc3cccnc3)ccc2c1=O 0.251 µM [inhibitor, full curve]
COc1ccc(N2C(=O)/C(=C/c3ccc([N+](=O)[O-])cc3)C=C2c2ccccc2)cc1 8.91 µM [inhibitor, full curve]
CCCCn1c(SCC(=O)NC(C)CC)nc2ccc(N3CCOCC3)cc2c1=O (stereo unspecified) 25.1 µM [inhibitor, partial curve]
O=C(NC(=S)Nc1ccc(N2CCCCC2)cc1)c1ccco1 39.8 µM [inhibitor, single point]
C/C(=C\c1ccccc1)CN1CCC(C(=O)N2CCCCC2)CC1 39.8 µM [inhibitor, single point]
CCOC(=O)c1c(NC(=O)C2CCCO2)sc(C(N)=O)c1C (stereo unspecified) 12.6 µM [inhibitor, partial curve]
NS(=O)(=O)c1ccc(CCNC(=O)C2CCC(CNS(=O)(=O)c3ccc(Br)s3)CC2)cc1 (stereo unspecified) 1.78 µM [inhibitor, full curve]
COCC(C)NC(=O)CCSc1nc(-c2ccc(OC)cc2)cc(C(F)(F)F)n1 (stereo unspecified) 22.4 µM [inhibitor, partial curve]
O=C(COC(=O)c1cc(-c2ccc(Cl)s2)nc2ccccc12)NCc1ccco1 25.1 µM [inhibitor, partial curve]
C=CCN(CC=C)S(=O)(=O)c1ccc(NC(=S)NC(=O)/C=C/c2ccccc2)cc1 39.8 µM [inhibitor, single point]

Potency, inactive:
NS(=O)(=O)c1cc2c(cc1C(F)(F)F)NCNS2(=O)=O

activity, negative = inhibition, inactive:
Cc1ccc(C(=O)N/N=C\c2ccccc2[N+](=O)[O-])cn1 -9.59%
CC(=O)N1c2ccc([N+](=O)[O-])cc2NC(=O)CC1C (stereo unspecified) 6.2%
COc1cccc(Cn2c(=O)c(-c3cn(C)c4ccccc34)nc3cnc(OC)nc32)c1 -7.27%
Cc1cc(Nc2cccc([N+](=O)[O-])c2)c2ccccc2n1 7.76%
Cc1ccccc1-c1nc(NC2CCNCC2)c2ccccc2n1 -2.51%
CC1(C)N=C(N)N=C(N)N1CCCCc1ccccc1 -8.57% [at 13.5 µM]
Cc1cc2c(c(=O)o1)[C@H](O)[C@H]1O[C@@H]1C2=O -9.28% [at 13.5 µM]
O=C(CNc1cccc(C(F)(F)F)c1)N/N=C/c1cn(-c2ccccc2)nc1-c1ccccc1 -0.178%
Cc1cccc(NS(=O)(=O)c2ccc(Cl)c(C(=O)O)c2)c1 14.2%
CC(C)c1onc(C(=O)N2CCOCC2)c1[N+](=O)[O-] 0.146%
COc1ccc(NC(=O)CSc2nc(C)cs2)cc1 3.7%
CCOC(=O)CN1C(=O)C2Cc3ccccc3CN2C1=S (stereo unspecified) -2.6%
COc1cc(NC(=O)Cc2cccs2)c(C(=O)O)cc1OC 1.7%
